Source: article PMC12136788
The list shows a part of the results.

T1: UNK ZnF1-3 (human, UniProt Q9C0B0 31-174)
T1 sequence: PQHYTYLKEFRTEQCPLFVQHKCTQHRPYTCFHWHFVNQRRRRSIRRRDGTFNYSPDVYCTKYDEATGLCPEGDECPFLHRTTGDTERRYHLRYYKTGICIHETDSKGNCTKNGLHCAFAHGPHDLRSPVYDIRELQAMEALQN

B1: 113732717_113735539_1954_CDS_ENSG00000126217_ENST00000375604|human|control|control (ssRNA)
RNA: GGGAGUUCUACAGUCCGACGAUCGCUCAUCACGUGCCUGCGCAGGAUGGCCAGGCUUUCCUCCUCCUCCCCCGCUGAGCCGCGGCCCUGCCGGCUCUCACUCAUCUCACUCUUGGCCCUCCGGUAGGGCCCUCUCCGGAGCGCCAACAGAGGAUUGAGCAUCA
B2: 38194907_38196095_1283_CDS_ENSG00000147548_ENST00000316985|human|control|control (ssRNA)
RNA: GGGAGUUCUACAGUCCGACGAUCCCACACAAGAUCGCCAACCUGAAACUUAACACCAGUGGACACUUCCGUUGUUGGAACAGAAGAUAGUAUUGGCUGAACUGGGGCUUCCUCUUUUAGUACUGGUUCUUCCCUUGGUUUUUCCAACAGAGGAUUGAGCAUCA
B3: chr14:78183846:78183847:+_ENSG00000119705_ENST00000557342|hu_hu|hu_hu_hu_mus_False|18_108 (ssRNA)
RNA: GGGAGUUCUACAGUCCGACGAUCUCUGUCUCAAAAAUCUUCAUCAGAUGUUUGAGCUCCGUGCAAAGCCUUUGCUCUUUGAGCUUGAACGUGGAUCUAUGGGAGGGAAAGCACUGUAUUUUCCUGUAAUUUUUUUUUUAAAGACAACAGAGGAUUGAGCAUCA
B4: chr8:104075188:104075189:+_ENSG00000155097_ENST00000518738|hu_hu|motif|central (ssRNA)
RNA: GGGAGUUCUACAGUCCGACGAUCCUUCCUAAACAAGGUGACAUUACACAGGUAACUGUCUUGGUCCUCUGAAAGAACAUUGCGGGACCUUGGAACUACCAUUUCGGCUAGUGUUUCAUACUGCUUAAUCCAGUCGUUGUGGUUCAACAGAGGAUUGAGCAUCA
B5: chr1:193046084:193046085:+_ENSG00000116747_ENST00000432079|hu_hu|FALSE|FALSE (ssRNA)
RNA: GGGAGUUCUACAGUCCGACGAUCUUCAUCAGGGCGCCACUUCAGUUUCCCUCUGAGACCAUGACCUGUCUUGUAAGUUUCUAAUGCGAUCAAAAUAUGAAAUGGAUGUAUACGAGCCUUUUUUAAUAGUUUUUCAUUACACAGCAACAGAGGAUUGAGCAUCA
B6: chr2:47388980:47388981:-_ENSG00000143933_ENST00000272298|hu_mus|hu_hu_hu_mus_True|98_98 (ssRNA)
RNA: GGGAGUUCUACAGUCCGACGAUCUUCAUCUGUUAACUUCUCUCCAAGGUUUGUCAUCACAUGGCGAAGCUCUGCUGCACUAAUAUAGCCAUUGCCAUCCUUAUCAAACACACGGAAUGCUUCUCUAAUCUCUUCUUCACUGUCCAACAGAGGAUUGAGCAUCA
B7: chr7:141450121:141450122:+_ENSG00000106028_ENST00000265304|hu_mus|motif|central (ssRNA)
RNA: GGGAGUUCUACAGUCCGACGAUCUCAUCCGUUCUAUGCCUUUUCUUUUGUCUGGUCACUCAGAAAUAUAAUGUUAUCAGCGGUGAUUGUUGUUGCUUGCCGCCUCACAUUGUUUUUAUCCAUGUACUCGCCAUAGUCCACUUUCAACAGAGGAUUGAGCAUCA
B8: chr10:94956308:94956309:-_ENSMUSG00000062981_ENSMUST00000075829|mus_hu|FALSE|FALSE (ssRNA)
RNA: GGGAGUUCUACAGUCCGACGAUCCCGAGGGAUAGGUUUUGUGUGUUCAUAUGGAAUGUCCACAGAAGGGUGGUAGCAUACUAUUGUCCUGCCAUCAGAAGUCAGAGCAAGCUCUACGUUGCAAUUAUAGUCAUCUGGUAGAGGCAACAGAGGAUUGAGCAUCA
B9: chr3:100432656:100432657:+_ENSG00000114354_ENST00000490574|hu_mus|FALSE|FALSE (ssRNA)
RNA: GGGAGUUCUACAGUCCGACGAUCUGUAACUUCAUCAUUACUCAGAAGCUUUCCUCUGAAUACUCGCUGCAUCAUUAGCACUAAUUCAUCGUAAGUAAUGUCUUCAUUAUGAAUGGGAAUUCGUCGGAUAUCUUCCCCAAGUUGCAACAGAGGAUUGAGCAUCA
B10: 135175974_135176979_1890_3pUTR_ENSMUSG00000041757_ENSMUST00000038295|mouse|control|control (ssRNA)
RNA: GGGAGUUCUACAGUCCGACGAUCUGUCUUGCUCGUUUAGCUUGAAGGUGUGGAGGCCAUCCCGGAACACCUCUGGGUAUGCAGGGACUUGCAUGAAAAGGUGGGCCCUGGGAGAGGAGUUCUCCACCAUUCGGUUCACCAUGCCAACAGAGGAUUGAGCAUCA
B11: chr13:51246309:51246310:+_ENSMUSG00000021395_ENSMUST00000095797|mus_mus|motif|central (ssRNA)
RNA: GGGAGUUCUACAGUCCGACGAUCUGCCUAUGAGAAAACACUGAGCACACAACGAUUGCAGCCAAGGACAGAACUGAGGUACGGUGUUCACAUGGUGAGCAGUUGUGACCACCCAGCAGUGUAAGGUGGUCAGCCUCUGUGAAACAACAGAGGAUUGAGCAUCA
B12: chrX:114877694:114877695:+_ENSG00000102024_ENST00000355899|hu_mus|FALSE|FALSE (ssRNA)
RNA: GGGAGUUCUACAGUCCGACGAUCGUUCAGUUUGGGGUUUCCGCUGACAACAUCAGCUGGAGUAACGAACUGUCUGCAACCUAAUUUAUCUGCUUGUUGAAGCAUACUUUCGGCUCUCUUUAAAUCAUCAGUUUCAUUGAAACCCAACAGAGGAUUGAGCAUCA
B13: 19499686_19499938_3247_CDS_ENSG00000127481_ENST00000375254|human|control|control (ssRNA)
RNA: GGGAGUUCUACAGUCCGACGAUCGUAUUCCUCUACUAUUUCAACAUCAUAUUUCACUGAGCUACACUUAGUGGUGGAUGCCAGUUCUAGAAGCGAGCUAGCAUGCUCAGCCUUCAUUCCCUGUUUGAUAAGGUGAUCCUUUAUCAACAGAGGAUUGAGCAUCA
B14: chr11:18536373:18536374:-_ENSG00000074319_ENST00000251968|hu_hu|motif|central (ssRNA)
RNA: GGGAGUUCUACAGUCCGACGAUCAUAUGGGUAUGUGUCCAGUAGCCAUAGGCAUAUUGGAAUAUUGUAUGUAUUACCUCGGUAAGGCACAGGGAUUGUUCCAGUGAGGUUCAUUAGUUCCCUGGAACUGCCAUCGUUAAAAACCAACAGAGGAUUGAGCAUCA

Biological target: T1, UNK ZnF1-3
Experiment: nsRBNS (natural sequence RNA bind-n-seq); RBNS binding buffer (assumed for nsRBNS): 25 mM Tris pH 7.5, 150 mM KCl, 3 mM MgCl2, 0.01% Triton X-100, 500 ug/ml BSA, 20 U/ml SUPERase-In, 4 C; UNK is unkempt and MSI1 is Musashi-1; names of the RNAs are library labels; protein concentration not given here; high values mean tight binding

**Q.** B1 was tested. Which binding signal did it give?
**A.** 0.83 enrichment R

**Q.** B2 was tested. Which binding signal did it give?
**A.** 0.947 enrichment R

**Q.** How did the binding signal turn out when B3 was run?
**A.** 1.24 enrichment R

**Q.** B4 was tested. Which binding signal did it give?
**A.** 0.508 enrichment R

**Q.** With B5 as the binder, how does the binding signal read?
**A.** 1.34 enrichment R

**Q.** For B6, which binding signal is on record?
**A.** 0.775 enrichment R

**Q.** B7 was tested. Which binding signal did it give?
**A.** 0.289 enrichment R

**Q.** Which binding signal does the source give for B8 here?
**A.** 1.08 enrichment R

**Q.** How did the binding signal turn out when B9 was run?
**A.** 0.647 enrichment R

**Q.** For B10, which binding signal is on record?
**A.** 1.19 enrichment R

**Q.** How did the binding signal turn out when B11 was run?
**A.** 0.96 enrichment R

**Q.** How did the binding signal turn out when B12 was run?
**A.** 0.531 enrichment R

**Q.** How did the binding signal turn out when B13 was run?
**A.** 0.447 enrichment R

**Q.** How did the binding signal turn out when B14 was run?
**A.** 0.503 enrichment R
